# Laboratory results reported in the supplement of paper PMC3334620.
# Whole data set: some 33,000 sequences, median “E-score (-0.5 to 0.5)” near -0.054, cut for the highest 2% near 0.35. The list shows a part of the results.
# Biological target: T1, Stb5 (UniProt P38699)
# T1 sequence: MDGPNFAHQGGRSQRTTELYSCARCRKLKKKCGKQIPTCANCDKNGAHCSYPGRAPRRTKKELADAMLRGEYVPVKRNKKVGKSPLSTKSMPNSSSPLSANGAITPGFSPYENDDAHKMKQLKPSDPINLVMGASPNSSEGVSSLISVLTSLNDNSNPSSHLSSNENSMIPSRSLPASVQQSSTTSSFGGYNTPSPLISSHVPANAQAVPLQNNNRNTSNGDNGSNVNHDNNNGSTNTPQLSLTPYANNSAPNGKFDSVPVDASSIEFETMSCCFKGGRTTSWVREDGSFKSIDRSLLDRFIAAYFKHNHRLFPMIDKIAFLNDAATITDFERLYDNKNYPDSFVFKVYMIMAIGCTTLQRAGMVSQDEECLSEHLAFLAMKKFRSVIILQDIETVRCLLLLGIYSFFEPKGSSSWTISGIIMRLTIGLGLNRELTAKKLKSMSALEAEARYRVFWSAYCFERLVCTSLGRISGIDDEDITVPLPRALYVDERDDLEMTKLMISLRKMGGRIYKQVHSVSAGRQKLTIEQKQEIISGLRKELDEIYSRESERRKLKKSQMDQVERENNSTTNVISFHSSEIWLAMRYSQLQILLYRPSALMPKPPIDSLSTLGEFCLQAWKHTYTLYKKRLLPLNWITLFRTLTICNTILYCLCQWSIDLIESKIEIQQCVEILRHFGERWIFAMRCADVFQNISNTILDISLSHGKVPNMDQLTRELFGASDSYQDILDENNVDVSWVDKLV
# Assay: PBM E-score (8-mer binding enrichment) (E-score (-0.5 to 0.5)); higher = stronger / more preferred TF binding; most listed sequences are background and not binding sites
# Details: protein concentration: 200 nM; construct: GST-full length
# Procedure, shortened: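 Detection of bound protein used fluorescent anti-GST, with scans normalised by masliner. The proteins were GST-tagged yeast transcription factors applied at about 100-200 nM to universal all-10-mer Agilent arrays made double-stranded by primer extension. Each ungapped eight-base word, pooled with its reverse complement, was scored with an E-score from the Universal PBM Analysis Suite.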
row,Sequence,PBM E-score
1,AACAGACA,-0.113
2,AACAGCAG,-0.0535
3,AGATGCAA,-0.355
4,CAATTCCG,0.0951
5,GACAGACC,-0.135
6,AGATTCTC,-0.111
7,CGTATCAA,-0.176
8,GCACTTGA,-0.0427
9,CTGATCAG,0.0278
10,AACAATAG,-0.106
11,ATCACGAC,-0.274
12,TGATTCCA,-0.287
13,ATGCGCTC,-0.0929
14,ACACCTTA,-0.0514
15,CACATGTC,-0.124
16,ATTGTCGA,-0.0381
17,ACATAAGA,-0.0369
18,AATGCAGG,-0.259
19,AAGTTTAG,0.0409
20,CACCGCGC,0.401
21,AGGGTTTG,-0.0633
22,ATCACACG,0.0972
23,CGGTTTGA,0.163
24,ATTCTGAA,0.0113
25,CAGGAGCA,-0.102

row,Sequence,PBM E-score
1,CATCGTCC,0.0586
2,GCGGCCGA,0.0888
3,AAGACTGC,-0.201
4,TAAATAGA,0.0163
5,AGCGACTG,-0.328
6,ACACAGCA,-0.065
7,ACCGCGAT,0.346
8,AGGCGATC,-0.302
9,AAGATCCC,0.0724
10,GGATGAGA,-0.304
11,CGTGGTGC,0.105
12,ATTGGTGA,-0.252
13,ATTACACA,-0.0719
14,GAGTTCAA,-0.153
15,CCACATGC,-0.104
16,ACTTAGGG,-0.279
17,AAAGATTG,-0.239
18,CGGTTTGC,0.0773
19,GGGCGGCA,0.323
20,CTGAATCC,-0.0039
21,AGCCTCAG,-0.284
22,CCGAGCGG,0.332
23,AGGAATCG,-0.00211
24,CATGGTGC,0.0108
25,GTCATTTA,-0.0261

row,Sequence,PBM E-score
1,GACATACA,0.129
2,ACTAACTG,-0.042
3,CATGAGGG,-0.227
4,GCCAGAGA,-0.195
5,GTAGAGGA,-0.212
6,CATTTGTC,-0.0965
7,CATACTGA,-0.196
8,ACCCTCGG,0.124
9,ATAACTTC,0.0857
10,GCCACTGA,-0.192
11,CCCTTGAG,-0.025
12,GAAGGTTA,-0.0832
13,AAGGAGGA,-0.32
14,GGAAAATA,0.0672
15,GAGCCTGA,-0.016
16,CCATAACG,-0.0562
17,AACGTCTA,-0.113
18,CCTATTGC,-0.0447
19,AAATACCT,-0.0726
20,GCATGGGA,-0.0248
21,AAATTCTC,-0.0542
22,CGACCTGA,-0.281
23,GATCCCAA,-0.249
24,ACACTGGA,-0.163
25,GCTGTATA,-0.11

row,Sequence,PBM E-score
1,AACGCCGT,0.437
2,AATCAGCG,0.177
3,CGAGAGGC,-0.109
4,ACCTACCA,-0.158
5,AGGTCGCG,-0.00818
6,GCGTCTAA,-0.0711
7,AAATACTC,-0.00557
8,ATGGCGGG,0.283
9,CGCTAGAA,0.0671
10,CGGCAGCA,0.208
11,CGACTTCC,0.025
12,GCGCTTAA,0.0781
13,TCGTGGCA,-0.196
14,GCCTTTCA,0.097
15,GGAGTCAC,0.116
16,GTCCGCAA,0.196
17,ATGGCAGG,-0.0726
18,AGACAAGG,-0.0903
19,ACTATGAA,-0.131
20,ATGGGCGA,-0.103
21,CGCAGCTC,-0.208
22,ATTGAATC,-0.113
23,AGAGAAGG,-0.0992
24,ATTTCACG,0.0121
25,AGACTAAG,-0.0466

row,Sequence,PBM E-score
1,GAGCTTGA,-0.169
2,CGGAACCC,0.126
3,ACCTGCTA,-0.0977
4,AGTTGAGG,-0.237
5,ACTTATCC,0.135
6,AAGGTTTC,-0.214
7,GCCTGGAC,0.0057
8,AGTCGGGA,0.287
9,AACCCGGC,0.309
10,GACTGCGC,-0.087
11,TAGGGGCA,-0.317
12,GCTCTTCA,-0.134
13,CGGATGAA,0.17
14,CTTTAAAC,0.0394
15,CATACTCA,-0.236
16,ATAAAACA,0.0701
17,CGCCACAC,0.0326
18,ACCTCGTA,-0.0722
19,CCATAGCA,-0.147
20,CCGATACA,0.28
21,CCCTCTGC,-0.326
22,ATGCTGCG,0.014
23,CTCAAACC,-0.124
24,AATGGCGG,0.261
25,AATCGGTC,0.234

row,Sequence,PBM E-score
1,CGAGGGAG,-0.265
2,CCATCTTA,-0.11
3,CACAGTAG,-0.255
4,GTACAGAC,-0.196
5,ACTAGTTG,-0.2
6,AGTCTGCA,-0.132
7,ATCATATG,-0.111
8,AAGTCTGG,-0.316
9,CAGCAGCA,-0.244
10,GATAACGA,-0.102
11,GACTCGCA,-0.089
12,ATGTAGAG,-0.0692
13,ATCCATCG,0.00275
14,CACAATGA,-0.244
15,CAAAATTG,-0.176
16,CCCTCTAG,-0.109
17,TCAGGCAA,-0.186
18,ATGCAGAC,-0.197
19,CCCATGAA,-0.0849
20,CGGAGCTC,0.249
21,CTTCCAAA,-0.293
22,ACTTAGAT,0.0184
23,GGACATAC,0.314
24,CCTTTTAC,-0.163
25,AACAAATG,-0.0842

row,Sequence,PBM E-score
1,ACTGCCGC,0.311
2,AGTAAAAC,-0.0669
3,CGTGCATC,-0.0271
4,ATCGTAAG,-0.132
5,CCCGCGAA,0.0986
6,GAAGATCC,0.0386
7,AACGTTTG,-0.125
8,CAGCTAGA,-0.208
9,AGATAACA,-0.0529
10,GTGCTCTA,-0.159
11,CATAGAAC,-0.0402
12,AAGCGCTG,0.078
13,CTCAAGGA,-0.163
14,AAGACCTC,-0.0749
15,TCAGCCGA,0.0641
16,ACCCATAG,-0.249
17,CTGTTACA,-0.0738
18,CCTCGCTA,-0.137
19,GCAGGACA,0.00302
20,ACCCGTTA,0.0551
21,AAATAAGA,0.231
22,ATATAAGA,-0.0442
